Measured values published in PubChem BioAssay AID485344 (National Center for Advancing Translational Sciences (NCATS), 2010).
The campaign covered roughly 340,000 compounds. About 6,900 (2%) were called active. Rule as the data show it: active = inhibition above about 30%; inactive = below that, where a call was filed. The list shows a part of the results, in another mix than the full data. Where no call is shown, the source filed none.

Target: D(2) dopamine receptor (Homo sapiens) (UniProt P14416)
Experiment: HTS Assay for Allosteric Antagonists of the Human D2 Dopamine Receptor: Primary Screen for Antagonists; also: 0% is about no effect
Settings: HEK293 TREx D2 cells, calcium flux, dopamine EC80; at 10 µM; stronger effect = higher value
Procedure, shortened: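 Compounds are added to dye-loaded, induced HEK293 T-REx cells coupled to calcium release via D2; after a 3 min kinetic read an EC80 dopamine stimulus is given and fluorescence is recorded for 3 more min.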

UniProt P14416, sequence (P14416 whole entry, looked up): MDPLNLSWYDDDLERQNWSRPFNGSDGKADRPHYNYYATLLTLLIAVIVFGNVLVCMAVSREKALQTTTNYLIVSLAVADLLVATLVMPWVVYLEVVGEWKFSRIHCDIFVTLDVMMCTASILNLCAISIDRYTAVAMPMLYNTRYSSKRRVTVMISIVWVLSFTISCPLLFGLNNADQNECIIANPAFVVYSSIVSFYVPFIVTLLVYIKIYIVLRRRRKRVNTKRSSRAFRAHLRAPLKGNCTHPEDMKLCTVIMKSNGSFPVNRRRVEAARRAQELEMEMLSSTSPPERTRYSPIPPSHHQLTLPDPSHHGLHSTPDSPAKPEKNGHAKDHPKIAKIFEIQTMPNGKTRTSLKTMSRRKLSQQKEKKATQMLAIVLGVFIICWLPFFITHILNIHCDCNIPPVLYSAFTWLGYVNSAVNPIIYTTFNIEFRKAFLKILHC

| Structure (SMILES) | inhibition |
| --- | --- |
| Cc1ccc(NC(=O)C(=O)NCC(c2cccnc2)N2CCN(Cc3ccccc3)CC2)cc1Cl (stereo not given) | -2.59% |
| Cc1ccc(-c2onc(C)c2C)cc1S(=O)(=O)N1CCN(c2ccccc2F)CC1 | 2.27% |
| COc1cc(OC)c(NC(=O)Nc2ccc3c(c2)N(C)C(=O)c2ccccc2S3)cc1Cl | -4.63% |
| COc1cc(OC)cc(-n2c(=O)c3sccc3n(Cc3ccc(F)cc3)c2=O)c1 | -16.6% |
| CCn1c2ccccc2c2cc(CN3CCN(Cc4cccc(Cl)c4)CC3)ccc21 | -23.2% |
| COc1cccc(NC(=O)CCNC(=O)Cn2cnc3ccccc3c2=O)c1 | 6.13% |
| COc1cc(C(CC(=O)NCc2ccccc2Cl)N2Cc3ccccc3C2=O)cc(OC)c1OC (stereo not given) | -6.71% |
| COC(=O)c1ccccc1NC(=O)CCCn1nc(C)c2c(C)n(-c3ccccc3)nc2c1=O | -4.34% |
| Cc1ccnc(Nc2nc3ccccc3s2)n1 | active: 39.5% |
| CCOc1ccccc1CNC(=O)c1ccc(-n2c(C)cc3c2CCC(C)C3)cc1 (stereo not given) | -3.72% |
| CCOc1ccc(NC(=O)C(CC)n2nc(C)c3c(C)n(-c4ccccc4)nc3c2=O)cc1 (stereo not given) | 11.1% |
| Cc1ccc(F)cc1NC(=O)CSc1nc(-c2cccs2)cc(C(F)(F)F)n1 | 8.87% |
| Cc1ccc(NC(=O)CN2C(=O)CC(c3ccco3)Sc3ccccc32)cc1Cl (stereo not given) | 3.61% |
| COc1ccc(NC(=O)c2oc3ccccc3c2NC(=O)c2cc3ccccc3o2)c(OC)c1 | -3.36% |
| CCOC(=O)c1ccc(NC(=O)CS(=O)(=O)Cc2nc(-c3ccc(C)cc3)oc2C)cc1 | 0.665% |
| CC1CCN(CCCCOc2ccccc2Br)CC1 | active: 90.7% |
| COC(=O)c1c(-c2ccc(Cl)cc2)noc1N1CCN(c2ccc(C(C)=O)cc2)CC1 | 0.585% |
| CCCNC(=O)CCc1c(C)nc2nc(CNC(=O)c3ccccc3)nn2c1C | 1.82% |
| O=C(Nc1cccc(-c2ccc(N3CCOCC3)nn2)c1)c1ccc(Cl)cc1 | active: 30.6% |
| COC(=O)c1cnc(N2CCN(c3ccc(OC)cc3)CC2)c2ccccc12 | 2.34% |
| Cc1ccccc1NS(=O)(=O)c1ccc2[nH]cc(C(=O)NCCc3ccccc3)c(=O)c2c1 | 13.4% |
| COc1ccc(OCCCC(=O)NCC(C)C)cc1 | active: 30.6% |
| Cc1ccccc1OCC(=O)Nc1c(C(=O)Nc2ccccc2F)oc2ccccc12 | -2.09% |
| CCOc1ccc(NC(=O)N2CC3CCCN3c3ccccc32)cc1 (stereo not given) | 0.703% |

| Structure (SMILES) | inhibition |
| --- | --- |
| CC(=O)NNc1ncnc2c1cnn2-c1ccccc1 | -15.6% |
| COc1ccc(-c2noc(CSc3nnc(C)n3-c3ccc(F)cc3)n2)cc1 | 8.05% |
| Cc1cn2c(=O)c(S(=O)(=O)Nc3ccc(OC(F)(F)F)cc3)c(C)nc2s1 | -18.4% |
| COc1ccc(NC(=O)C(c2ccccc2)N(C)C(=O)/C=C\c2ccc3c(c2)OCO3)cc1 (stereo not given) | 1.4% |
| COc1ccccc1N1CCN(C2CCN(C(=O)COc3ccccc3)CC2)CC1 | active: 89.8% |
| CCOc1ccc(C(=O)Nc2ccc3nc(Nc4cccc(C(F)(F)F)c4)cc(C)c3c2)cc1OCC | -8.3% |
| COc1ccc(-c2c(C)nn3c(C(F)(F)F)cc(-c4ccc(C)cc4)nc23)cc1 | 15.5% |
| COc1ccc(C(CC(=O)Nc2cc(Cl)c(OC)cc2OC)N2Cc3ccccc3C2=O)cc1 (stereo not given) | -7.79% |
| COc1ccc(CNC(=O)Cn2c(=O)n3nc(-c4ccc(OC)cc4)nc3c3ccccc32)cc1 | -15.7% |
| CC(=O)c1cccc(NS(=O)(=O)c2ccc3[nH]c4c(c3c2)CCCCC4)c1 | -3.99% |
| O=C(Nc1cccc(Br)c1)N1CCN2CCCCC2C1 (stereo not given) | -14.8% |
| Cc1cccc(NC(=O)/C(C#N)=C/c2ccco2)c1 | 13.7% |
| COc1ccc(OC)c(CNC(=O)c2cc3c(Cl)nc4ccccc4c3s2)c1 | -5.75% |
| CCCNC(=O)Cn1nc(-c2ccc(OC)cc2)c2cnc3ccc(F)cc3c21 | -9.3% |
| COc1ccccc1CC(=O)Nc1ccc2nc(Nc3cccc(C(F)(F)F)c3)cc(C)c2c1 | -6.76% |
| O=C(Nc1nc2n(n1)C(c1ccc(F)cc1)C=C(c1ccc(Cl)cc1)N2)c1ccc([N+](=O)[O-])cc1 (stereo not given) | 10.8% |
| COc1ccc(NC(=O)c2cnn(-c3ccc(C)c(C)c3)c2C2CCNCC2)cc1OC | -9.05% |
| Cc1cccc(C2=Nc3ccccc3N=C(c3cc(Cl)ccc3O)C2)c1 | 3.93% |
| CCOc1ccc(NC(=O)CCc2c(C)nc3cc(-c4ccccc4OC)nn3c2C)cc1 | 16.6% |
| O=C(O)c1ccc(NS(=O)(=O)c2ccc(Cl)c(C(=O)Nc3ccccc3)c2)cc1 | 9.05% |
| Cc1ccc(N(C)S(=O)(=O)c2ccc3[nH]c(=O)ccc3c2)cc1 | 9.78% |
| Cc1c(NC(=O)Nc2ccc(Cl)c(Cl)c2)sc2nc3n(c(=O)c12)CCC(C)CC3 (stereo not given) | -1.49% |
| O=C(c1ccc(CS(=O)(=O)c2ccc(Br)cc2)o1)N1CCN(c2ccc(F)cc2)CC1 | 8.35% |
| Cc1ccc(NC(=O)c2sc3ncnc(N(C)C4CCCCC4)c3c2C)c(C)c1 | -3.62% |

| Structure (SMILES) | inhibition |
| --- | --- |
| COC(=O)c1scc(-c2ccc(C)cc2)c1S(=O)(=O)N1CCN(c2ccc(F)cc2)CC1 | -2.83% |
| Nc1c(C(=O)NCc2cccs2)nnn1CC(=O)Nc1cccc(F)c1 | 16.5% |
| O=C(NCc1ccco1)c1ccc2c(c1)N(Cc1ccccc1)C(=O)c1ccccc1S2 | -16.6% |
| CCC1CCCCN1C(=O)c1c[nH]c2ccc(S(=O)(=O)Nc3cccc(OC)c3)cc2c1=O (stereo not given) | 4.47% |
| CCOc1ccc(NC(=O)c2ccc3c(c2)OCCO3)cc1S(=O)(=O)N(CC)CC | active: 31.9% |
| Cc1cc(C)c(S(=O)(=O)NCCc2sc3nc(-c4ccc(F)cc4)nn3c2C)c(C)c1 | 25.3% |
| Cc1cc(C)cc(-n2ccn(CC(=O)c3ccc(F)cc3)c(=O)c2=O)c1 | -14.1% |
| O=S(=O)(NCC(c1ccc2c(c1)OCO2)N1CCN(c2ccccc2)CC1)c1ccccc1 (stereo not given) | active: 80.5% |
| O=C(NC1CCCCC1)c1ccc(CSc2nc3cccnc3n2Cc2cccc(F)c2)cc1 | -13.3% |
| CCOC(=O)c1cc(-c2ccc(C)cc2)n(CCCC(=O)Nc2cc(C)ccc2C)c1 | 7.04% |
| Cc1cccc(-n2c(Cc3cc(=O)[nH]c(=O)[nH]3)nnc2SCC(=O)Nc2cccc(C(F)(F)F)c2)c1 | active: 36.6% |
| Cc1cccc(C(=O)n2nc(C)c(S(=O)(=O)N3CCOCC3)c2C)c1 | -2.05% |
| CCCCC(=O)N1CCc2cc(OC)c(OC)cc2C1COc1ccc(C(=O)OCC)cc1 (stereo not given) | -7.35% |
| COCCCn1c(=N)c(C(=O)NC2CCCC2)cc2c(=O)n3cccc(C)c3nc21 | -0.763% |
| COc1ccc(Cn2ccc3nc(C)c(C(=O)Nc4cc(OC)c(OC)c(OC)c4)cc3c2=O)cc1 | -12% |
| Cc1cc(C)n(C(C)CC(=O)Nc2ccc(Cl)cc2C)n1 (stereo not given) | 13.8% |
| Cc1c(C(=O)NC2CCN(Cc3ccccc3)C2)oc2ccc(Br)cc12 (stereo not given) | active: 37.7% |
| COc1cccc(CN2C(=O)C3(SCC(=O)N3c3ccc(C)c(Cl)c3)c3ccccc32)c1 (stereo not given) | 3.06% |
| Cc1ccc(-n2c(=O)c3ccc(C(=O)NCc4ccco4)cc3n(CC(=O)Nc3ccc(C)c(F)c3)c2=O)cc1 | -9.9% |
| Cc1ccc(NS(=O)(=O)c2ccc3c(c2)N(C)C(=O)CC(=O)N3C)cc1Cl | 15.8% |
| COc1ccc(CNC(=O)c2ccc3c(c2)nc2n3CCCCC2)cc1 | -3.46% |
| CC1CCc2c(sc(NC(=S)NC(=O)c3ccccc3)c2C#N)C1 (stereo not given) | active: 37.5% |
| CCC1CN(C(=O)N2CCC(C(=O)N3CCN(c4ccccc4)CC3)CC2)c2ccccc2O1 (stereo not given) | 15.3% |
| CCOC(=O)N1CCc2c(sc(NCc3ccc(N(CC)CC)cc3)c2C(=O)Nc2cc(OC)ccc2OC)C1 | 2.51% |

| Structure (SMILES) | inhibition |
| --- | --- |
| O=S(=O)(NCC(c1cccs1)S(=O)(=O)c1ccccc1)c1ccccc1 (stereo not given) | 12.8% |
| CCOC(=O)C(NC(=O)c1ccccc1)(Nc1cc(C)on1)C(F)(F)F (stereo not given) | active: 31.2% |
| COc1ccc(-c2nc3n(n2)C(c2ccccc2OC)C(C(=O)Nc2cccnc2)=C(C)N3)cc1 (stereo not given) | 14.9% |
| CCOc1ccc(NC(=O)Cn2c(=O)n(CCCCC(=O)NCCc3ccc(Cl)cc3)c(=O)c3ccccc32)cc1 | 0.982% |
| CCOc1ccc(C(=O)Nc2ccc3oc(-c4ccc(C)cc4C)nc3c2)cc1Br | -4.49% |
| CCc1ccccc1NC(=O)CC1NCCNC1=O (stereo not given) | 26.9% |
| O=C(C1CCC(CNS(=O)(=O)c2ccc(Br)s2)CC1)N1CCN(c2ccc(F)cc2)CC1 (stereo not given) | -16.6% |
| O=C(Nc1cccc(Cl)c1)N1CC2CCCN2c2ccccc21 (stereo not given) | -4.49% |
| Cc1oc(-c2ccccc2F)nc1CS(=O)CC(=O)NC(C)C (stereo not given) | 2.23% |
| COc1ccc(OC)c(NC(=O)c2cccc3c2C(=O)N(C2CCCCC2)C3)c1 | -1.67% |
| Cc1cccc(Cn2c(CNS(=O)(=O)c3ccc(C(C)C)cc3)nc3cccnc32)c1 | 11.3% |
| O=C(CSc1nc2c([nH]c3ccccc32)c(=O)n1-c1ccc(F)cc1)N1CCc2ccccc21 | -25% |
| CCc1ccc(-n2nc(CO)c(C(=O)NCCc3ccccc3)n2)cc1 | 9.19% |
| Cc1cc(C)cc(-n2c(SCC(=O)N3CCC(C)CC3)nc3c([nH]c4ccccc43)c2=O)c1 | 8.39% |
| Cc1ccc(C)c(N2CCN(C(=O)Cc3c(C(=O)O)c(C)cn3C)CC2)c1 | 5.64% |
| COc1cccc(C(=O)N2CCCCC2CCN2CCCCC2)c1 (stereo not given) | -20% |
| CCOC(=O)c1cc2c(=O)n3ccccc3nc2n(CC2CCCO2)c1=NC(=O)c1ccccc1C (stereo not given) | 8.12% |
| CCOc1ccc2nc(N3CCN(C(=O)c4ccco4)CC3)sc2c1 | 12.3% |
| Cc1ccc2c(=O)cc(C(=O)NCc3ccccc3)oc2c1 | 11.3% |
| COc1ccc(CNC(=O)C2CCCN(S(=O)(=O)c3ccc4c(ccn4C)c3)C2)c(OC)c1 (stereo not given) | 7.32% |
| COc1ccc(NC(C)=O)cc1NC(=O)C1(c2cccs2)CCOCC1 | -8.09% |
| CCOC(=O)C1CCN(Cc2cccc(OCc3ccccc3)c2)CC1 | active: 86.2% |
| O=S(=O)(c1ccc(F)cc1)N(CC(O)Cn1c2ccccc2c2ccccc21)c1ccccc1 (stereo not given) | -12.8% |
